# Data taken from paper PMC4336329 (PLoS ONE, 2015).
# Among all 310,000 compounds or so, about 14,000 (4.5%) showed an effect of 50% or more. Effects have a minus sign here. The list shows a part of the results.
# Biological target: human ether-à-go-go-related gene (hERG) potassium channel (human, UniProt Q12809)
# Assay: primary screen, population patch clamp on CHO cells stably expressing hERG
# 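Note: peak tail current of the secondary pulse compared with the same well before compound.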
# human ether-à-go-go-related gene (hERG) potassium channel, sequence (Q12809 whole entry, looked up): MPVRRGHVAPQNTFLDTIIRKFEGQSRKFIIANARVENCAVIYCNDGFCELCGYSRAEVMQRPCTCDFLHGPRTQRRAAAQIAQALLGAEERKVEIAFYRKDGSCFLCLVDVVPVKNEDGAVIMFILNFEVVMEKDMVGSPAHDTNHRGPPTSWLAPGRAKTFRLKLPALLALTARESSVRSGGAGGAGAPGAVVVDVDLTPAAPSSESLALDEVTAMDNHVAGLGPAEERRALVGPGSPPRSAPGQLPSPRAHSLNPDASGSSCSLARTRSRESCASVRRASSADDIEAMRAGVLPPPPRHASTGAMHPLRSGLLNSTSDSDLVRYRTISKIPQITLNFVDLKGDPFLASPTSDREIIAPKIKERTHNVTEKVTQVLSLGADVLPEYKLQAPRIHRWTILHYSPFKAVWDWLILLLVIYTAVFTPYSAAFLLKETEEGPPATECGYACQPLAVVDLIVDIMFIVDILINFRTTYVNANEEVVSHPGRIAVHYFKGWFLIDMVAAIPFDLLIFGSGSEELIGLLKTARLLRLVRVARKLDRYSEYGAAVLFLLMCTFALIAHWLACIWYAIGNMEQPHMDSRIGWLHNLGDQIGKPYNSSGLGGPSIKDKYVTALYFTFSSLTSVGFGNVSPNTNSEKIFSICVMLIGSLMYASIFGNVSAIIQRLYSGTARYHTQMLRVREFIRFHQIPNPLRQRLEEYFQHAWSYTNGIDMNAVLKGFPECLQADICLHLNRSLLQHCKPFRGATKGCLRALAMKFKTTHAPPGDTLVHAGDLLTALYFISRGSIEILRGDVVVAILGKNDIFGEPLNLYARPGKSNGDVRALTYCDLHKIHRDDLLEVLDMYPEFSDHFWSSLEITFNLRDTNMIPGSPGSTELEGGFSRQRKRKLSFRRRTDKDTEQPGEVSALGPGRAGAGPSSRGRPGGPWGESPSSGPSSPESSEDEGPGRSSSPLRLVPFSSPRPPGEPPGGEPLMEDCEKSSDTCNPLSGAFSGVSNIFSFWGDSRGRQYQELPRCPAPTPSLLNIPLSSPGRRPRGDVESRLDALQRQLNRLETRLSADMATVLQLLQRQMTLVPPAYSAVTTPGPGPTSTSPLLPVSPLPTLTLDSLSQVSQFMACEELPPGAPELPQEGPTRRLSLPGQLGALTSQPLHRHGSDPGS
row,Structure (SMILES),"hERG current change (%, negative = inhibition) at 10uM"
1,COc1ccccc1CC(NC(C)=O)C(=O)NC1CCN(C(=O)c2ccc([N+](=O)[O-])cc2)CC1 (stereo not shown),-25.4%
2,O=C(N/N=C/c1ccccn1)c1cc(C2CC2)nc2ccccc12,4.26%
3,Cc1ccc(CN2CCN(CC(=O)N=Nc3c(O)[nH]c4ccccc34)CC2)cc1,-73.5%
4,Cc1cc(Nc2cccc(F)c2)nc(NCc2ccccc2)n1,0.72%
5,COC(=O)c1cc(S(=O)(=O)NCc2cccs2)c[nH]1,19.1%
6,CC(=O)NNC(=S)NC(=O)c1ccccc1,22.4%
7,CC(C)(C)c1ccc(C(=O)OCCNC(=O)c2c(Cl)nc3ccccn23)cc1,-9.89%
8,CCN(Cc1ccccc1)C(=O)CN1C(=O)COc2ccc(S(=O)(=O)N3CCCCCC3)cc21,-8.9%
9,O=C(CN(C(=O)CSc1nc2ccccc2o1)c1cccc(F)c1)NC1CCCCC1,-2.34%
10,Cn1c(CN2CCCCC2)nc2cc(NS(=O)(=O)c3ccc(Cl)cc3)ccc21,-62.5%
11,CCOc1ccc(N2CCc3c(C)nc(SC)nc32)cc1,-2.26%
12,COc1cc2cc(CN(CCO)S(=O)(=O)c3ccccc3)c(=O)[nH]c2cc1OC,-7.73%
13,CCc1nn(CC(=O)NCCCN(Cc2ccccc2)C(C)C)c(=O)c2cc3sccc3n12,-43.8%
14,CN(C)c1nc(OCc2ccccc2)c2ncc(=O)[nH]c2n1,8.17%
15,O=C(/C=C/c1ccc(F)cc1)Nc1cccc(S(=O)(=O)Nc2cccc(C(F)(F)F)c2)c1,21.2%
16,CCCOc1ccc(C(F)(F)F)cc1NC(=O)CCc1c(C)noc1C,-24.3%
17,CCN(CC(=O)Nc1ccc(OC)c(OC)c1)CC(=O)Nc1ccccc1C(F)(F)F,-0.147%
18,CCOc1ccc2[nH]c(=O)c(CN(Cc3ccco3)C(=O)c3cccc(F)c3)cc2c1,9.04%
19,CCCc1nc(SCc2cccnc2)c2c(=O)n(C)c(=O)n(C)c2n1,-57.3%
20,CCCCC(=O)OCC(=O)c1cc(C)n(-c2c(C)n(C)n(-c3ccccc3)c2=O)c1C,16.1%
21,COc1ccc(-c2cc(C(F)(F)F)c(C#N)c(=O)[nH]2)cc1,18.8%
22,Cc1ccc2c(c1)[C@H]1[C@H](CO2)[C@H](c2ccccc2)[C@]2(C)C(=O)N(Cc3ccc(Cl)cc3)CC(=O)N12,-3%

row,Structure (SMILES),"hERG current change (%, negative = inhibition) at 10uM"
1,Cc1cc(C)cc(C(=O)NCC(=O)OC(C)C(=O)N(C)c2ccccc2)c1 (stereo not shown),12.2%
2,CN(C)S(=O)(=O)c1cccc(NC(=O)c2sccc2-c2ccccc2)c1,-26.1%
3,Cc1ccc(Cn2c(=N)c(C(=O)NCc3ccco3)cc3c(=O)n4ccccc4nc32)cc1,-79.8%
4,COc1ccc(NC(=O)CC2C(=O)NCCN2C(=O)c2ccccc2)cc1 (stereo not shown),12.7%
5,CC1=C(C(=O)Nc2cccc(C(=O)NCc3ccccc3C)c2)SCCO1,7.44%
6,CCC(O)(CC)C(=O)NN(C(=O)CCl)c1ccccc1,8.94%
7,Cc1ccc(C(=O)COC(=O)CCC(=O)Nc2cccc(Cl)c2)cc1[N+](=O)[O-],11.7%
8,O=S(=O)(N/N=C/c1ccc(F)cc1)c1ccccc1,6.88%
9,Cc1cc(N2CCCC2=O)cc(C)c1S(N)(=O)=O,3.59%
10,COc1cccc(COc2ccc3c(C)cc(=O)oc3c2)c1,8.93%
11,CC(C)CCN1CCN(Cc2c(F)cccc2Cl)CC1CCO (stereo not shown),-21.6%
12,COc1ccc(C(=O)c2c(-c3ccc(OC)cc3)oc3ccc(-c4ccc(OC)nc4)cc23)cc1,12.8%
13,CCN(CC)Cc1c[nH]c2c(C(=O)OC)cccc12,-15.3%
14,O=C(Nc1cccc(-n2cnnn2)c1)c1cccnc1,4.53%
15,O=C(NN1C(=O)C2CCCCC2C1=O)c1ccco1 (stereo not shown),9.31%
16,Cc1nn(C(=O)CNC(=O)c2ccccc2)c(C)c1C,14.1%
17,Cc1ccc(Nc2c([N+](=O)[O-])ccc3nonc23)cc1C,13.8%
18,COc1cccc(-c2ccc(NC(=O)C3CCCN(Cc4nccn4C)C3)cc2)c1 (stereo not shown),-31.8%
19,CCN(C(=O)CCNC(=O)Cn1cnc2ccccc2c1=O)c1cccc(Cl)c1,-4.36%
20,Cc1cccc(Nc2ncnc3onc(-c4cccc(Cl)c4)c23)c1,3.29%
21,CCOc1ccc(-n2ccc(=O)c(C(=O)Nc3ccc(S(=O)(=O)Nc4nccs4)cc3)n2)cc1,24.7%
22,C=CCNC(=O)C1(c2ccccc2)CC1(Cl)Cl (stereo not shown),-5.1%

row,Structure (SMILES),"hERG current change (%, negative = inhibition) at 10uM"
1,NS(=O)(=O)c1ccc(NC(=O)CN2C(=O)c3ccccc3C2=O)cc1,23.2%
2,Cc1ccc(C2=NN(C(=O)CCC(=O)O)C(c3cccs3)C2)cc1 (stereo not shown),15.2%
3,O=C(C/C=N\OCc1ccc([N+](=O)[O-])cc1)Nc1ccccc1,-27.1%
4,Cc1cc(C)nc(SCC(=O)N2CCC(C(N)=O)CC2)n1,10.2%
5,COc1ccc2cc(C(=O)C3CCCN(C(=O)c4cnccn4)C3)ccc2c1 (stereo not shown),-12.9%
6,COc1ccc(N2CCN(C(=O)Cn3c(=O)c4cccn4c4cccnc43)CC2)cc1,-15.3%
7,CCCCn1c(SCC(=O)Nc2nccs2)nc2ccccc2c1=O,-1.12%
8,O=C(Nc1nc(-c2cccs2)cs1)c1ccc(Cl)s1,-10.4%
9,COc1ccc(N(CC(=O)NCCSCc2ccccc2C)S(=O)(=O)c2ccccc2)cc1,-3.89%
10,CCOC(=O)c1cnn(-c2cc(C(C)(C)C)nc3c(-c4ccccc4)c(C)nn23)c1N,-4.61%
11,COc1ccc(NC(=O)CN2C(=O)C(C)SC(C)C2=O)cc1 (stereo not shown),2.09%
12,Cc1ccc(Cn2c(NS(=O)(=O)c3ccccc3)nc3ccccc32)cc1,21.3%
13,COc1ccc(C2=NN(CN3C(=O)C(=O)c4ccccc43)C(c3ccc(C)cc3)C2)cc1 (stereo not shown),8.68%
14,CCN(CC)S(=O)(=O)c1cc(NC(=O)COc2ccc(C#N)cc2OC)ccc1C,-38.1%
15,COc1ccc(CC(=O)NC(=S)Nc2ccc(S(N)(=O)=O)cc2)cc1,-17.6%
16,NC(=S)N/N=C/c1coc2c(ccc3ccccc32)c1=O,19%
17,Cc1cc(C)c(C(=O)Nc2ccc(C)c(C)c2)c(CC(C)(C)C(=O)O)c1,21.1%
18,CCOc1ccc(-c2nnc(NC(=O)CCCOc3cccc(C)c3)o2)cc1,12.5%
19,COC(=O)C1C(c2ccccc2)C(C(=O)N2CCN(C)CC2)C1c1ccccc1 (stereo not shown),2.03%
20,O=c1c(-c2ccccc2)[n+]([O-])c2ccccc2n1O,-9.6%
21,COc1ccc(CCn2c(C)cc(C(=O)CSc3nnnn3-c3ccccc3)c2C)cc1,19.9%
22,O=C(N/N=C/c1cc(Br)c(O)c([N+](=O)[O-])c1)C(O)(c1ccccc1)c1ccccc1,9.45%

row,Structure (SMILES),"hERG current change (%, negative = inhibition) at 10uM"
1,O=C(N/N=C/c1ccccn1)C(=O)N1CCCCCC1,15.4%
2,CC(C)CN1CCN(Cc2cc3ccccc3[nH]2)CC1CCO (stereo not shown),-8.69%
3,CC(=O)Nc1cccc(NC(=O)CSc2nc(C3CC3)nc3ccccc23)c1,5.72%
4,O=C(c1cc2c(=O)n3ccccc3nc2s1)N1CCN(Cc2ccc3c(c2)OCO3)CC1,-43.3%
5,COc1ccc(-n2c(SCC(=O)Nc3ccc(Br)cc3)nc(O)cc2=O)cc1,0.556%
6,CCOC(=O)c1ccc(N2C(=O)Cc3ccccc3C2=O)cc1,20.9%
7,CCOC(=O)c1oc2c(CN3CCN(C)CC3)c(O)ccc2c(=O)c1-c1ccc(Br)cc1,0.129%
8,O=C(O)CSc1ncnc2c1oc1ccccc12,14.2%
9,CC1CCCCN1CC(=O)Nc1cc(S(=O)(=O)N2CCOCC2)ccc1N1CCCC1 (stereo not shown),-8.37%
10,Cc1ccc(C(=O)NNC(=O)CCCCC(=O)NNC(=O)c2ccc(C)cc2)cc1,11.1%
11,COC(=O)c1ccc(CSc2ccc3nnc(-c4ccc(OC)cc4)n3n2)o1,-44.2%
12,COc1ccc(OCC(=O)Nc2ccc(S(=O)(=O)N3CCOCC3)cc2)cc1,4.13%
13,Cc1cc(F)ccc1S(=O)(=O)Nc1ccccc1C(=O)Nc1ccccc1N1CCOCC1,-21.6%
14,CNc1ccccc1-c1nc2ccccc2n(C)c1=O,-12.3%
15,CN(Cc1cccnc1)C(=O)CCCc1c[nH]c2ccccc12,18.1%
16,Cc1ccc(NC(=O)CN(C)C(=O)c2cc(-c3cccs3)nn2-c2ccccc2)cc1,-33.1%
17,O=C(Nc1ccc(S(=O)(=O)N2CCCC2)cc1)c1cc(F)c(F)cc1Cl,-10.7%
18,CCOCc1[nH]c(=S)[nH]c(=O)c1Cc1ccc(OCC(C)C)cc1,14%
19,Cc1ccc(NC(=O)CN2C(=O)NC(C)(C3CC3)C2=O)cc1S(=O)(=O)N1CCCCC1 (stereo not shown),-10.3%
